# Experimental data published in the supplement of paper PMC12067093, “Discovery and optimisation of a covalent ligand for TRIM25 and its application to targeted protein ubiquitination” (Chemical Science, 2025).
# About 21,000 targets were measured; listed, in parts, are those with the largest changes and a random draw of the rest.
# Compound: CC1Cc2ccccc2N1C(=O)C1CCCN(C1)C(=O)CCl (mixture of isomers) [TRIM25 ligand 11 (diastereomer mixture)]
# Experiment: probe-labelled cysteine peptide fold change vs DMSO (competition) (log2 fold change); higher = less target engagement (more negative = stronger competition)
# Details: 10 µM; THP-1; incubation time: 4 h
# 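Also: competitive chemoproteomic profiling in live THP-1 cells with an iodoacetamide desthiobiotin (IA-DTB) probe, comparing probe-labelled peptide intensities in compound-treated cells against DMSO-treated controls.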
# Chain of UniProt Q9Y2V7 (Q9Y2V7 whole entry, looked up): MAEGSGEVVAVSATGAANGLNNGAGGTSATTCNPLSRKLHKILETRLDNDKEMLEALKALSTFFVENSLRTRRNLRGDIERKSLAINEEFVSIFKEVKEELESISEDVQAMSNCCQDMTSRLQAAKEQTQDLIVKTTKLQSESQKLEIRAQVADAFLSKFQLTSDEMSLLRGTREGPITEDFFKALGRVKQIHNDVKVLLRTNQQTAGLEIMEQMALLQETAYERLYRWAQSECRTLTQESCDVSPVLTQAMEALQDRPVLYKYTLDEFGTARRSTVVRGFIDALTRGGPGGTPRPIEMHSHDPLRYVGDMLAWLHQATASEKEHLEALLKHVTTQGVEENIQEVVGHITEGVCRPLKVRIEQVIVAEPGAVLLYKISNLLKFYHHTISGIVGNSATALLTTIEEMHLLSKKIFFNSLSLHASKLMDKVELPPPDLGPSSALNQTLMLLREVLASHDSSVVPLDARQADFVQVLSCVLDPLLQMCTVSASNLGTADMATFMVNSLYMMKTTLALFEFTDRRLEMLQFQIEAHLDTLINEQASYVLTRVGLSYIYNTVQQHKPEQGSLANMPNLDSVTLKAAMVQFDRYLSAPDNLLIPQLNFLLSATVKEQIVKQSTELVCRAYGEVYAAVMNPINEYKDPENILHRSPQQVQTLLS
# Chain of UniProt Q86Y37 (Q86Y37 whole entry): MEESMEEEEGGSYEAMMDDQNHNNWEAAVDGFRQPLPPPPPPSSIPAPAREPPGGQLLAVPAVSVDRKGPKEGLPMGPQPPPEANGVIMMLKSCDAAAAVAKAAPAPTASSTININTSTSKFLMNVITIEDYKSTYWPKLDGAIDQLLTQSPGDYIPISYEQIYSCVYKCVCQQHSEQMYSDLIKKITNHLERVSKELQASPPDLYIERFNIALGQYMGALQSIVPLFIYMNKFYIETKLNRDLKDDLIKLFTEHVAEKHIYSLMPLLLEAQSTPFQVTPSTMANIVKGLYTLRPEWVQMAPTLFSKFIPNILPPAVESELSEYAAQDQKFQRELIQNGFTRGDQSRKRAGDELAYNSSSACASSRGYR
# Chain of UniProt Q7L5N1 (Q7L5N1 whole entry, looked up): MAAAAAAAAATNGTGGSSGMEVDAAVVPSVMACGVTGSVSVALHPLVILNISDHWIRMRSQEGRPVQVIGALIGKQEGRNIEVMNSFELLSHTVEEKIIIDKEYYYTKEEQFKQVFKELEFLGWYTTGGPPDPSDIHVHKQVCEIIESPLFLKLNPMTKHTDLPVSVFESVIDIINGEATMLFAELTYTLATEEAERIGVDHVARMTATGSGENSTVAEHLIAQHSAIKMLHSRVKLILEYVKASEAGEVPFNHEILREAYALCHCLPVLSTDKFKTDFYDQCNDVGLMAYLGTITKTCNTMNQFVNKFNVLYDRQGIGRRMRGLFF
# Chain of UniProt Q00610 (Q00610 whole entry, looked up): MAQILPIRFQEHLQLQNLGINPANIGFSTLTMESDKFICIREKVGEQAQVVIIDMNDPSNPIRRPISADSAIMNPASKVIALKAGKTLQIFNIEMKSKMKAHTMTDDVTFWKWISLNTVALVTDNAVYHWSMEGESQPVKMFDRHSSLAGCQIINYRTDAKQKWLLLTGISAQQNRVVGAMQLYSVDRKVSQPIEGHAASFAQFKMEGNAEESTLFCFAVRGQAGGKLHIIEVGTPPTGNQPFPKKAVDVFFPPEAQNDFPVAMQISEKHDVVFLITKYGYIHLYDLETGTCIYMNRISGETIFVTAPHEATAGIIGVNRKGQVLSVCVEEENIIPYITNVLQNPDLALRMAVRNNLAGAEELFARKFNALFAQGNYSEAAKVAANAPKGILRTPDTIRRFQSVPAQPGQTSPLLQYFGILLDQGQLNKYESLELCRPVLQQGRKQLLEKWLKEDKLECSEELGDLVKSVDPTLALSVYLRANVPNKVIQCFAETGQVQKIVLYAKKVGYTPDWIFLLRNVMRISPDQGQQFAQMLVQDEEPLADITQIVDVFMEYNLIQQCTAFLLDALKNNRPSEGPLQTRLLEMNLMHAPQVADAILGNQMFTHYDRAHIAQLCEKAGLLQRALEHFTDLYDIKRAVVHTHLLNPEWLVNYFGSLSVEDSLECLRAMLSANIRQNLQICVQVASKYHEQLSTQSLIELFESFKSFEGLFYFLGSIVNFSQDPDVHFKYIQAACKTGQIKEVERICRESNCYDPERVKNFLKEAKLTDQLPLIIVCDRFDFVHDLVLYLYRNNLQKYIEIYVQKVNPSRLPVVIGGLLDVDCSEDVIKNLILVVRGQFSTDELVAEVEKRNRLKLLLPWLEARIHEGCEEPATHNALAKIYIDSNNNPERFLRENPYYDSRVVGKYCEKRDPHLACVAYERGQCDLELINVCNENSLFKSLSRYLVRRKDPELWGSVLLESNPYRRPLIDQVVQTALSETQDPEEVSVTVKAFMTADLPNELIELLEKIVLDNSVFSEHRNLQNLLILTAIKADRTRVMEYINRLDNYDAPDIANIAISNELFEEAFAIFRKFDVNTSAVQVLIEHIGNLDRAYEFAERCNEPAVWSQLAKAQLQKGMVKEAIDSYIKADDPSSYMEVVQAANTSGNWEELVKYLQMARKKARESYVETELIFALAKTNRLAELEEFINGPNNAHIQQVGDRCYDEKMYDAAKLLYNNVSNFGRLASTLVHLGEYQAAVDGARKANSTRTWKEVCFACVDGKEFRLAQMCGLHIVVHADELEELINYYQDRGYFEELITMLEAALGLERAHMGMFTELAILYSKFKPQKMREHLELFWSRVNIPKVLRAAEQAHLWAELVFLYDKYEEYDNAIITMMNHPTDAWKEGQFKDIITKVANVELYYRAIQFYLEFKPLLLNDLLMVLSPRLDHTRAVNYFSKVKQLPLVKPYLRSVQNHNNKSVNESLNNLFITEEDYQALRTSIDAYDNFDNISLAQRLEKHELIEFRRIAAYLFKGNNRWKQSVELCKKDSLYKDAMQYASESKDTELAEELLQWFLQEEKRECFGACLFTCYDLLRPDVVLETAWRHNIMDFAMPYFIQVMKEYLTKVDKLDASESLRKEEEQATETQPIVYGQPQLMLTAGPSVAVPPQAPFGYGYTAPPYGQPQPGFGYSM
# Chain of UniProt Q96SN8 (Q96SN8 whole entry, looked up): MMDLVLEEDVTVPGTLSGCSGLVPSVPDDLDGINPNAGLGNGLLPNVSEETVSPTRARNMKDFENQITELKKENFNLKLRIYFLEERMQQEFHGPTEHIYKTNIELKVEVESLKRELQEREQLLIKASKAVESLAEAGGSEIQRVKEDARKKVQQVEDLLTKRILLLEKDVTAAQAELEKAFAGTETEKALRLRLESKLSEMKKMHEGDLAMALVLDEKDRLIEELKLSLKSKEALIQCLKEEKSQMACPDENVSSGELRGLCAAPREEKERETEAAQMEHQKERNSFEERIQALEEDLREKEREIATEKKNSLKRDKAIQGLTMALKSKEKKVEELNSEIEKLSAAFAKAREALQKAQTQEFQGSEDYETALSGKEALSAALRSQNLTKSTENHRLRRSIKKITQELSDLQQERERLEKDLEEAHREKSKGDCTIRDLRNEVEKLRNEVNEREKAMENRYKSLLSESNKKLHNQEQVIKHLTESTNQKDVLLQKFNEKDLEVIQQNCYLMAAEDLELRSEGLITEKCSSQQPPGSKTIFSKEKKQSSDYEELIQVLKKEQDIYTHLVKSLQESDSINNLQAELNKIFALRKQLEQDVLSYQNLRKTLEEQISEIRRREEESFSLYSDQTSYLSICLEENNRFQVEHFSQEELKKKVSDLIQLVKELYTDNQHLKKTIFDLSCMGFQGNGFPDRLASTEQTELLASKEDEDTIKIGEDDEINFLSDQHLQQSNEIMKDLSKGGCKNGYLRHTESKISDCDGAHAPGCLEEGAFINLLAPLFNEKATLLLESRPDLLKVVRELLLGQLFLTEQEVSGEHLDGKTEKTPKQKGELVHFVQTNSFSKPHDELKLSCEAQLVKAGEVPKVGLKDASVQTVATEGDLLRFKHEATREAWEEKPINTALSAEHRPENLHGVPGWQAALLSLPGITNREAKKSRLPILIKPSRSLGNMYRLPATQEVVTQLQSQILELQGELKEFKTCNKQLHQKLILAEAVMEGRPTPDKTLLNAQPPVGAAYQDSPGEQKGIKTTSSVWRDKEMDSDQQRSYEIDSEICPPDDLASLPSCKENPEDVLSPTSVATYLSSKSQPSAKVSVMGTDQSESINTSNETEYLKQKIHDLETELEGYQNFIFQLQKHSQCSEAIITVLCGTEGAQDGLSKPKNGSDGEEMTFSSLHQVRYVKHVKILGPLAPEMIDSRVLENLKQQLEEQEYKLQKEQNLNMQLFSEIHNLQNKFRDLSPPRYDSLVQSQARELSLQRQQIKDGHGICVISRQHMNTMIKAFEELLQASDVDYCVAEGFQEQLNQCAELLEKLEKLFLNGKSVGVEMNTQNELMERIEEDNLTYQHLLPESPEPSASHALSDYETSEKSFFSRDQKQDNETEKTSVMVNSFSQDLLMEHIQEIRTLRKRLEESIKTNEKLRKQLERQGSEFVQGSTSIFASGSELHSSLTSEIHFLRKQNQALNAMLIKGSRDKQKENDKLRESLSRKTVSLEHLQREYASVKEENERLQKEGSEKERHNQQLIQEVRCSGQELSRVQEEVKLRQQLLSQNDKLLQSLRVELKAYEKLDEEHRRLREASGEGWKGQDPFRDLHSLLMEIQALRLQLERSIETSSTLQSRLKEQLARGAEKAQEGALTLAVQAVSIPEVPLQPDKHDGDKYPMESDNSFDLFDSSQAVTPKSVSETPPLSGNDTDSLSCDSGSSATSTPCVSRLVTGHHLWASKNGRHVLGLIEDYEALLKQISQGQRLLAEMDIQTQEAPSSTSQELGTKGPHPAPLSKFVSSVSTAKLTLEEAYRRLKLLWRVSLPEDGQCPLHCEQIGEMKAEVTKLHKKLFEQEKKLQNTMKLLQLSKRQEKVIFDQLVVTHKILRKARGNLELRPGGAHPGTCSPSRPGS
# Chain of UniProt P23528 (P23528 whole entry, looked up): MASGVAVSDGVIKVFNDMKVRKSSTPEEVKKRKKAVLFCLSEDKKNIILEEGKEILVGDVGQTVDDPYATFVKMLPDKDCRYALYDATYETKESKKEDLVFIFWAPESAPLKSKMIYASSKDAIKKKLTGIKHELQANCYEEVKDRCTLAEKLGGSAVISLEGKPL
row,Target,probe-labelled cysteine peptide fold change
1,BRIX1_Q8TDN6_107_LFVINEVCEMK (UniProt Q8TDN6),-0.0374
2,COPS7B_Q9H9Q2_240_ATASSSAQEMEQQLAERECPPHAEQR (UniProt Q9H9Q2),-0.464
3,CDC34_P49427_93_MWHPNIYETGDVCISILHPPVDDPQSGELPSER (UniProt P49427),-0.168
4,CNOT6L_Q96LI5_283_HVDGCAIFFK (UniProt Q96LI5),0.0132
5,CD82_P27701_216_TQSGNHPEDWPVYQEGCMEK (UniProt P27701),0.0676
6,COPS6_Q7L5N1_266_EAYALCHCLPVLSTDK (UniProt Q7L5N1),-0.137
7,CLTC_Q00610_39_FQEHLQLQNLGINPANIGFSTLTMESDKFICIR (UniProt Q00610),-0.4
8,CHD8_Q9HCK8_1116_EACHIIPHDFHLQAMVR (UniProt Q9HCK8),0.00656
9,COPA_P53621_693_LGEVALLQGNHQIVEMCYQR (UniProt P53621),0.343
10,CD4_P01730_41_KGDTVELTCTASQK (UniProt P01730),-0.0702
11,COG6_Q9Y2V7_234_WAQSECR (UniProt Q9Y2V7),-0.0172
12,CAP1_Q01518_375_INSITVDNCKK (UniProt Q01518),-0.103
13,CLUH_O75153_551_HQVLNDRDEEVELCSSVECK (UniProt O75153),-0.0322
14,CELF2_O95319_174_GCAFVTFSTR (UniProt O95319),-0.0617
15,C19orf54_Q5BKX5_186_LAQEVLGCQAK (UniProt Q5BKX5),0.0315
16,CALR_P27797_105_GQTLVVQFTVKHEQNIDCGGGYVK (UniProt P27797),-0.618
17,CAND1_Q86VP6_1007_NCIGDFLK (UniProt Q86VP6),5.23e-05
18,COG4_Q9H9E3_240_FSEYLCK (UniProt Q9H9E3),-0.00443
19,CFL1_P23528_80_MLPDKDCR (UniProt P23528),-0.669

row,Target,probe-labelled cysteine peptide fold change
1,COPE_O14579_148_ALHQGDSLECTAMTVQILLK (UniProt O14579),0.065
2,CDK5RAP2_Q96SN8_508_DLEVIQQNCYLMAAEDLELR (UniProt Q96SN8),-0.00816
3,CNBP_P62633_171_ECTIEATA (UniProt P62633),-0.151
4,COG1_Q8WTW3_72_CAVGLVDAVK (UniProt Q8WTW3),0.0562
5,CCND3_P30281_6_MELLCCEGTR (UniProt P30281),-0.195
6,COG1_Q8WTW3_625_LCQSLGELCPHLK (UniProt Q8WTW3),-0.0646
7,CCDC88A_Q3V6T2_524_QSLQNCQNLSK (UniProt Q3V6T2),0.0236
8,CNOT9_Q92600_91+99_VCNALALLQCVASHPETR (UniProt Q92600),0.0724
9,CIAO1_O76071_271_TIYDIAWCQLTGALATACGDDAIR (UniProt O76071),-0.17
10,C16orf62_Q7Z3J2_20_AEFASCR (UniProt Q7Z3J2),-0.0595
11,CERS6_Q6ZMG9_236_VGTLVLCLHDSADALLEAAK (UniProt Q6ZMG9),-0.074
12,COPE_O14579_212+225_CSPTLLLLNGQAACHMAQGR (UniProt O14579),-0.157
13,CDKL5_O76039_152_LCDFGFAR<|>PRKD3_Q00532_719_LCDFGFAR<|>CDKL1_Q15139_144_LCDFGFAR<|>PRKD1_Q9BZL6_726_LCDFGFAR<|>CDKL3_Q9NRP7_142_LCDFGFAR (UniProt Q9NRP7+Q9BZL6+Q15139+Q00532+O76039),0.129
14,CNN2_Q99439_215_CASQVGMTAPGTRR (UniProt Q99439),-0.451
15,CNBP_P62633_67_DCDLQEDACYNCGR (UniProt P62633),0.697
16,CDC42_P60953_18_TCLLISYTTNK (UniProt P60953),0.436
17,CACUL1_Q86Y37_362_AGDELAYNSSSACASSR (UniProt Q86Y37),-0.0702
18,CDK6_Q00534_280_CLTFNPAK (UniProt Q00534),-0.0529
19,CNBP_P62633_150_CGETGHVAINCSK (UniProt P62633),-0.0611

# Same assay, conditions: 50 µM; THP-1; incubation time: 4 h
row,Target,probe-labelled cysteine peptide fold change
1,BRIX1_Q8TDN6_107_LFVINEVCEMK (UniProt Q8TDN6),0.0843
2,COPS7B_Q9H9Q2_240_ATASSSAQEMEQQLAERECPPHAEQR (UniProt Q9H9Q2),-0.315
3,CDC34_P49427_93_MWHPNIYETGDVCISILHPPVDDPQSGELPSER (UniProt P49427),0.0184
4,CNOT6L_Q96LI5_283_HVDGCAIFFK (UniProt Q96LI5),0.105
5,CD82_P27701_216_TQSGNHPEDWPVYQEGCMEK (UniProt P27701),-0.0764
6,COPS6_Q7L5N1_266_EAYALCHCLPVLSTDK (UniProt Q7L5N1),0.124
7,CLTC_Q00610_39_FQEHLQLQNLGINPANIGFSTLTMESDKFICIR (UniProt Q00610),-0.464
8,CHD8_Q9HCK8_1116_EACHIIPHDFHLQAMVR (UniProt Q9HCK8),0.0672
9,COPA_P53621_693_LGEVALLQGNHQIVEMCYQR (UniProt P53621),0.186
10,CD4_P01730_41_KGDTVELTCTASQK (UniProt P01730),-0.14
11,COG6_Q9Y2V7_234_WAQSECR (UniProt Q9Y2V7),-0.0634
12,CAP1_Q01518_375_INSITVDNCKK (UniProt Q01518),-0.0313
13,CLUH_O75153_551_HQVLNDRDEEVELCSSVECK (UniProt O75153),-0.0386
14,CELF2_O95319_174_GCAFVTFSTR (UniProt O95319),-0.125
15,C19orf54_Q5BKX5_186_LAQEVLGCQAK (UniProt Q5BKX5),-0.124
16,CALR_P27797_105_GQTLVVQFTVKHEQNIDCGGGYVK (UniProt P27797),-0.248
17,CAND1_Q86VP6_1007_NCIGDFLK (UniProt Q86VP6),0.122
18,COG4_Q9H9E3_240_FSEYLCK (UniProt Q9H9E3),0.156
19,CFL1_P23528_80_MLPDKDCR (UniProt P23528),-0.345

row,Target,probe-labelled cysteine peptide fold change
1,COPE_O14579_148_ALHQGDSLECTAMTVQILLK (UniProt O14579),0.0508
2,CDK5RAP2_Q96SN8_508_DLEVIQQNCYLMAAEDLELR (UniProt Q96SN8),0.248
3,CNBP_P62633_171_ECTIEATA (UniProt P62633),-0.101
4,COG1_Q8WTW3_72_CAVGLVDAVK (UniProt Q8WTW3),0.0762
5,CCND3_P30281_6_MELLCCEGTR (UniProt P30281),0.0224
6,COG1_Q8WTW3_625_LCQSLGELCPHLK (UniProt Q8WTW3),-0.145
7,CCDC88A_Q3V6T2_524_QSLQNCQNLSK (UniProt Q3V6T2),-0.00671
8,CNOT9_Q92600_91+99_VCNALALLQCVASHPETR (UniProt Q92600),0.206
9,CIAO1_O76071_271_TIYDIAWCQLTGALATACGDDAIR (UniProt O76071),-0.0985
10,C16orf62_Q7Z3J2_20_AEFASCR (UniProt Q7Z3J2),-0.0578
11,CERS6_Q6ZMG9_236_VGTLVLCLHDSADALLEAAK (UniProt Q6ZMG9),-0.175
12,COPE_O14579_212+225_CSPTLLLLNGQAACHMAQGR (UniProt O14579),-0.292
13,CDKL5_O76039_152_LCDFGFAR<|>PRKD3_Q00532_719_LCDFGFAR<|>CDKL1_Q15139_144_LCDFGFAR<|>PRKD1_Q9BZL6_726_LCDFGFAR<|>CDKL3_Q9NRP7_142_LCDFGFAR (UniProt Q9NRP7+Q9BZL6+Q15139+Q00532+O76039),0.157
14,CNN2_Q99439_215_CASQVGMTAPGTRR (UniProt Q99439),-0.761
15,CNBP_P62633_67_DCDLQEDACYNCGR (UniProt P62633),0.254
16,CDC42_P60953_18_TCLLISYTTNK (UniProt P60953),0.335
17,CACUL1_Q86Y37_362_AGDELAYNSSSACASSR (UniProt Q86Y37),-0.318
18,CDK6_Q00534_280_CLTFNPAK (UniProt Q00534),-0.0366
19,CNBP_P62633_150_CGETGHVAINCSK (UniProt P62633),-0.112
